Assay results from PubChem BioAssay AID485344 (National Center for Advancing Translational Sciences (NCATS), 2010).
Screen size: about 340,000 compounds; about 6,900 (2%) were called active. Rule as the data show it: active = inhibition above about 30%; inactive = below that, where a call was filed. The entries are a selection whose mix differs from that of the whole data set. Where no call is shown, the source filed none.

What follows are molecules tested against D(2) dopamine receptor (Homo sapiens) (UniProt P14416) (assay: HTS Assay for Allosteric Antagonists of the Human D2 Dopamine Receptor: Primary Screen for Antagonists). Conditions: HEK293 TREx D2 cells, calcium flux, dopamine EC80; at 10 µM; stronger effect = higher value.
Method in brief: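 In this primary screen, negative modulation is detected by tracking calcium flux after an EC80 dopamine challenge in inducible HEK293 T-REx D2 cells preexposed to test compound for 180 s.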
Also: 0% is about no effect.

Sequence of UniProt P14416 (P14416 whole entry, looked up): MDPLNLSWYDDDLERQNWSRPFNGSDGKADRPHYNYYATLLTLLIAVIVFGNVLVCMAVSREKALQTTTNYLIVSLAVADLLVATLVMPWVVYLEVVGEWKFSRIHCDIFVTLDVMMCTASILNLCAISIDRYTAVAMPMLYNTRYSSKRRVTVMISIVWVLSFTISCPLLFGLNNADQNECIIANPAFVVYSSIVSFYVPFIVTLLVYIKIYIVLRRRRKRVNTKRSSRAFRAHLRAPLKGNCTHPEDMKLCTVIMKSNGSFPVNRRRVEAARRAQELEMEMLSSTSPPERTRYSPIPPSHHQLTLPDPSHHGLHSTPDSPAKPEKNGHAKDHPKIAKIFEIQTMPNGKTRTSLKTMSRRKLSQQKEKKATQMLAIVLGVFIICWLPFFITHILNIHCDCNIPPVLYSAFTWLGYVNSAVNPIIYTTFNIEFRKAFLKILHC

Compound | inhibition
O=C(c1cnc(N2CCOCC2)c2ccccc12)N1CCN(c2ccc(F)cc2)CC1 | -3.91%
CC1(C)CC(=O)c2cc(-c3nc(-c4ccc(Br)cc4)cs3)c(=O)n(-c3ccccc3)c2C1 | 7.58%
Cc1cccc(-c2noc(CN(C(C)C)S(=O)(=O)c3ccc(Br)cc3)n2)c1 | 5.46%
Cc1ccc2nc(CSc3nnc(NC(=O)COc4ccccc4F)s3)cc(=O)n2c1 | -7.25%
Nc1c(C(=O)c2ccc3c(c2)OCO3)sc(Nc2ccccc2F)c1S(=O)(=O)c1ccccc1 | -13.1%
COc1ccc(C2CC(=O)c3cc(-c4nc(-c5cccc([N+](=O)[O-])c5)cs4)c(=O)n(-c4cc(C)cc(C)c4)c3C2)cc1 (stereo unspecified) | 10.5%
CCOC(=O)CSc1nc2sc3c(c2c(=O)n1CC)CCCC3 | -6.82%
CCCC(=O)Nc1ccc2nn(-c3ccc(CC)cc3)nc2c1 | -15.8%
O=C(CCCn1c(=O)c2sccc2n(Cc2c(F)cccc2Cl)c1=O)NCc1ccccc1 | 6.73%
Cn1c(=O)c2c(-c3ccccc3Br)n(C(C)(C)C)cc2n(C)c1=O | 6.96%
CCCCOC(=O)c1ccc(NC(=O)c2ccc3c(c2)CCN3S(=O)(=O)c2ccccc2)cc1 | -1.06%
O=C(Nc1ccc(F)cc1F)c1ccc(-c2ccccc2)s1 | 2.45%
CCOC(=O)c1c(C)[nH]c(C)c1S(=O)(=O)N1CCCC(C(=O)N2CCN(c3ccc(Cl)cc3)CC2)C1 (stereo unspecified) | 14.6%
O=C(Nc1ccccc1C(=O)OCc1cc(=O)n2c3c(sc2n1)CCCC3)c1ccc(Cl)cc1 | 9.48%
Cc1nnc(N2CCN(c3ccccc3)CC2)c2c1nnn2Cc1ccc(F)cc1 | 17.5%
CCOC(=O)c1ccc(N2CCN(c3cccc(Cl)c3)CC2)c(NC(=O)Nc2ccc(Cl)cc2)c1 | 8.09%
O=C1Nc2c(c(=O)[nH]c(=O)n2-c2ccc(Cl)cc2)C1(NS(=O)(=O)c1ccccc1)C(F)(F)F (stereo unspecified) | 0.756%
Cc1ccc(C)c(NC(=O)CCn2cnnn2)c1 | 1.41%
CCOc1ccccc1CNS(=O)(=O)c1cnc(N)nc1 | 5.22%
COc1ccccc1Cn1c(CNS(=O)(=O)c2ccc(Cl)s2)nc2cccnc21 | -11.9%
COCCCNC(=O)c1cc2c(=O)n3cccc(C)c3nc2n(C(C)C)c1=N | active: 34.5%
CC(=O)c1cccc(NC(=O)Cn2cnc3c2c(=O)n(C)c(=O)n3C)c1 | 18%
COc1ccc(-n2c(CCC(=O)O)ccc2-c2ccccc2)cc1 | -11.8%
CCOC(=O)c1cccc(NC(=O)Cc2ccc(NC(=O)N3CCCCc4ccccc43)cc2)c1 | -3.54%

Compound | inhibition
CCC(=O)N1CCc2cc(Br)cc(S(=O)(=O)N3CCCC(C(=O)Nc4ccc(CC)cc4)C3)c21 (stereo unspecified) | -0.124%
COc1ccc(/C=C(\C#N)c2nc(-c3ccc(Cl)c(Cl)c3)cs2)cc1OC | 5.68%
COc1cc(C(=O)NCC(c2ccc(N(C)C)cc2)N2CCCC2)cc(OC)c1OC (stereo unspecified) | -20.8%
CCOc1ccc(NC(=O)CSc2nc3nc(C)c(Cc4ccccc4)c(C)n3n2)cc1 | -9.6%
CCc1ccc(NC(=O)CSc2nc(=O)n(Cc3cccnc3)c3c2CCC3)cc1 | 11.7%
Cc1ccc(-c2nc3ccc(Br)cn3c2Nc2ccc3c(c2)OCO3)o1 | -2.29%
O=C(COc1ccccc1F)NC1CC(=O)N(c2ccc3c(c2)OCCO3)C1 (stereo unspecified) | -7.69%
CCc1ccccc1NC(=O)CSc1nc2c(oc3ccccc32)c(=O)n1-c1ccccc1 | 4.01%
O=C(NCc1ccccc1Cl)C(=O)NCC(c1ccco1)S(=O)(=O)c1cccs1 (stereo unspecified) | -10.9%
COc1ccccc1CNC(=O)C1CCN(c2nn3c(=O)cc(C)nc3s2)CC1 | -6.53%
CCC1CCCCN1CCCNC(=O)c1cc2c(Cl)nc3ccc(C)cc3c2s1 (stereo unspecified) | -1.08%
COc1ccc(Cn2c(=O)c3oc4ccccc4c3n(CC(=O)Nc3cc(C)cc(C)c3)c2=O)cc1 | -8.88%
Cc1c2cnn(CC(=O)NCCc3ccccc3)c(=O)c2c(C)n1Cc1ccccc1Cl | 7.14%
CCC1CCCCN1CCCNC(=O)c1ccc2c(c1)N(Cc1cccc(C)c1)C(=O)c1ccccc1S2(=O)=O (stereo unspecified) | -10.1%
COc1cccc(-n2cc(C(=O)NCCc3cccc(C)c3)c3ccccc3c2=O)c1 | 13.7%
Cc1ccc(C)c(N2CCN(C(=O)C(C)n3nc(C)c4sc5ccccc5c4c3=O)CC2)c1 (stereo unspecified) | -15.1%
COC(=O)c1ccc(NC(=O)N2CCc3c([nH]c4ccccc34)C2c2ccc(C)cc2)cc1 (stereo unspecified) | 5.88%
O=C(Nn1cnc2ccccc2c1=O)c1ccccc1 | active: 31.2%
C/C(=N\NC(=O)C12CCC(C)(C(=O)O1)C2(C)C)c1ccccc1O (stereo unspecified) | active: 82.5%
O=C(NCC(c1cccnc1)N1CCOCC1)C(=O)Nc1cccc(Cl)c1 (stereo unspecified) | 20.7%
CSc1ccc(CCNC(=O)c2sc3ncccc3c2-n2cccc2)cc1 | -20.1%
COc1cccc(C(=O)Nc2ccc3nc(SCc4ccc(C)cc4)sc3c2)c1 | -2.17%
Cn1nc(-c2ccccc2)c(-c2ccccc2)c(C(=O)Nc2ccc(S(N)(=O)=O)cc2)c1=O | -5.39%
Cc1cccc(-n2c(SCC(=O)Nc3ccccc3Cl)nc3n[nH]c(C)c3c2=N)c1 | 18.2%

Compound | inhibition
CCOc1ccc(Nc2c(S(=O)(=O)c3ccc(C)cc3)cnc3ccc(OC)cc23)cc1 | -5.39%
COC(=O)c1ccc(NC(=O)CC2C(=O)N(c3ccccc3)C(=O)N2C2CCCC2)cc1 (stereo unspecified) | 16.6%
COc1cc2nc(NCc3ccccc3Cl)n3nc(-c4cccnc4)nc3c2cc1OC | 3.59%
COc1ccc(CC(=O)N2CC(=O)Nc3ccc(Br)cc3C2c2ccc(F)cc2)cc1OC (stereo unspecified) | -26.1%
O=C(Nc1cc(C(F)(F)F)ccc1N1CCOCC1)c1cncc(Br)c1 | active: 30.9%
CC(C)(C)c1ccccc1OCCOCCN1CCCCCC1 | active: 31.3%
COc1ccc(Cn2c(C(=O)O)c(CNC3CCC(C)CC3)c3ccc(C)cc32)cc1 (stereo unspecified) | -0.0792%
COc1cc(C(=O)N2CCC(c3ccncc3)CC2)cc(OC)c1OC | -6.7%
COCCCNC(=O)CSc1nc2nc(C)c(Cc3ccccc3Cl)c(C)n2n1 | 2.2%
CC(=O)N1CCCc2cc(S(=O)(=O)NCc3ccc(N(C)C)cc3)ccc21 | -15.7%
Cc1ccc2c(c1)N(C(=O)N1CCC(C(=O)NC3CCCCCC3)CC1)CCO2 | -1.26%
Cc1ccc(-n2ncc3c(N4CCN(C)CC4)ncnc32)cc1 | -28%
COc1cc(OC)cc(C(=O)NCc2ccc3c(c2)CCN3C(=O)c2ccccc2)c1 | 3.59%
CCOc1ccc(NC(=O)Nc2cc(C(C)C)ccc2C)cc1 | active: 31.2%
CN(C)c1ccc(-c2nc(-c3ccncc3)no2)cc1[N+](=O)[O-] | 16.2%
CCCOc1ccc(C(=O)Nc2ccc(NC(=O)c3cccc(Cl)c3)cc2)cc1 | -1.46%
Cc1ccc(C)c(N2CCN(C(=O)c3cc(S(=O)(=O)N4CCCC4)c[nH]3)CC2)c1 | 20.5%
COc1cccc(Nc2cc(-c3ccccc3)nc(C)n2)c1 | -10.1%
CCc1ccc(S(=O)(=O)Nc2cc(-c3cn4ccccc4n3)ccc2C)cc1 | 26.1%
S=c1nc(-c2ccccc2)n(CCCn2ccnc2)c2c1CCCC2 | active: 39.1%
COc1ccc(C)c2sc(N(Cc3cccnc3)C(=O)COc3ccccc3)nc12 | 24.8%
CC(C)(C)SCCNC(=O)CN(c1ccccc1)S(=O)(=O)c1ccc(F)cc1 | active: 32.2%
Cc1ccc(-c2cn3c(n2)sc2cc(C(=O)NCc4cccs4)ccc23)cc1 | 22.2%
CCC1CN(C(=O)N2CCC(C(=O)NCCc3ccc(C)cc3)CC2)c2ccccc2O1 (stereo unspecified) | 8.55%

Compound | inhibition
CCCCNC(=O)Cn1c(=O)cc(C)c2c(C)nn(-c3ccc(CC)cc3)c21 | 6.65%
Cc1oc(-c2ccccc2)nc1CSc1nnc(C)n2c1cc1sccc12 | 18.7%
CCOCCCNC(=O)CCC(=O)NNc1nc2ccccc2c2nc(-c3ccccc3)nn12 | -9.88%
O=C(NCc1cccc(Br)c1)C1CCN(C(=O)c2sccc2-n2cccc2)CC1 | 6.42%
Cc1ccc(-n2nc(CO)c(C(=O)NCC(c3ccccc3)c3ccccc3)n2)cc1 | 16.7%
O=C(CCc1nnc2n(Cc3ccccc3Cl)c(=O)c3ccccc3n12)Nc1ccc(F)c(F)c1 | 0.391%
CCCCN1C(=O)C2C(C(=O)Nc3cccc(OC)c3)C3C=CC2(O3)C1C(=O)NC1CCCCC1C (stereo unspecified) | active: 35.8%
CCc1sc(Nc2ccc(C)cc2Br)nc1-c1cc2cccc(OC)c2oc1=O | 5.54%
CC(=O)NCCNc1nc2c(-c3ccc(C)cc3)nnn2c2ccccc12 | -9.96%
CCCN(CCC)C(=O)Cn1c(=O)n(-c2ccc(C)cc2)c(=O)c2ccc(C(=O)NCc3ccccc3Cl)cc21 | -2.21%
CNC(=O)C1CCN(Cc2cc3ccccc3n2Cc2ccccc2C)CC1 | 24.1%
CCOc1ccc(OCC)c(NC(=O)C(NS(=O)(=O)c2ccc(Br)s2)c2ccccc2)c1 (stereo unspecified) | -1.71%
COc1cccc(CNC(=O)CN2C(=O)CCCc3ccccc32)c1OC | 21.2%
Nc1c(-c2nc(-c3cccs3)no2)nnn1-c1cccc(F)c1 | -0.655%
CCOC(=O)c1cnc2c(C)cccc2c1NCCc1ccc(OC)c(OC)c1 | -13.2%
CCc1ccc(NC(=O)c2ccc3oc(=O)n(Cc4ccccc4)c3c2)cc1 | 18.4%
Cc1ccc(C)c(CN2C(=O)c3ccccc3S(=O)(=O)c3ccc(C(=O)N4CCCC4)cc32)c1 | -8.71%
CCN(c1ncnc2c1cnn2-c1cc(Cl)ccc1C)C1CCCCC1 | -19.6%
COc1cccc(-n2cc(C(=O)Oc3cccc(C(F)(F)F)c3)c3ccccc3c2=O)c1 | 27.4%
COC(C[C@H](O)C[C@H](O)[C@H](C)OCc1ccccc1)OC | active: 37.8%
CC(C)OC(=O)C(CC(=O)O)NCc1ccccc1 (stereo unspecified) | active: 68.2%
CCc1noc(C)c1C(=O)NNC(=O)c1ccc(Br)cc1 | active: 36.7%
Cc1ccc(O)c(NC(=O)c2noc3c2CCCCC3)c1 | 0.384%
CC(=O)N1c2ccccc2CC1C(=O)N1CCN(c2cccc(Cl)c2)CC1 (stereo unspecified) | -0.898%
